{"source": "the supplement of paper PMC11417369", "note": "The list shows a part of the results.", "data": [{"system": "PF3D7_0420300 AP2 domain 1 (GST-tagged)", "experiment": "gcPBM binding intensity (ln(normalized median fluorescence intensity)); higher = stronger DNA binding", "summary_of_the_method": "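Each value is the highest Masliner-normalised natural-log median intensity across replicate spots of either orientation of a probe. The probes were primer-extended double-stranded 36-bp intergenic genomic sequences on an Agilent 4 × 180k array, alongside negative controls, exposed for 1 h to GST-tagged P. falciparum DNA-binding domains expressed in E. coli. Bound protein was picked up with Alexa488 anti-GST antibody and scanned at 488 nm.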", "values": [{"sequence": "TGAAGAATATTTTTCACACATATATATATATATATA [CACACA_site6080]", "gcPBM binding intensity (ln)": 9.06}, {"sequence": "TATATATATAATTAAGCATGCTAGAAACCTTTGAAA [TGCATGCA_site489]", "gcPBM binding intensity (ln)": 9.19}, {"sequence": "TACAATCTAAAATACACACGCACACCGAAAAAAAAA [CACACA_site3520]", "gcPBM binding intensity (ln)": 9.78}, {"sequence": "ATATATATATATATATGTACATATTTTTGTTTGATG [XGTACX_site51]", "gcPBM binding intensity (ln)": 9.08}, {"sequence": "CAGATATTCATATAAACACACATACAAATTATGTAT [CACACA_site4258]", "gcPBM binding intensity (ln)": 9.45}, {"sequence": "ATATATATATATATTGCACACACAATTATTATTATT [CACACA_site8721]", "gcPBM binding intensity (ln)": 9.58}, {"sequence": "GAGAAAAGGAAATAACGTACACATATGCATATCCAA [XGTACX_site5858]", "gcPBM binding intensity (ln)": 9.48}, {"sequence": "TGAAAGAAGCATAAATGTACACACATATTTATATAT [XGTACX_site2645]", "gcPBM binding intensity (ln)": 9.55}, {"sequence": "TATTTATTGTGACACTTTTATTATTTTATGATAAAA [CACACA_negctrl_site37]", "gcPBM binding intensity (ln)": 9.06}, {"sequence": "GTGTTCTTGTTATACACACACATATATATATATATA [CACACA_site1032]", "gcPBM binding intensity (ln)": 9.78}, {"sequence": "GTAATATTTTATAGTAGTACATATTTTTATTATTTT [XGTACX_site3333]", "gcPBM binding intensity (ln)": 9.3}, {"sequence": "GAGAGGTCAGTTCACAGTACCCAGAAACTCTACGAG [XGTACX_site2559]", "gcPBM binding intensity (ln)": 8.86}, {"sequence": "AATATTTATTTAATTTCACACAGGTCTTTTTTTTTT [CACACA_site5188]", "gcPBM binding intensity (ln)": 9.48}, {"sequence": "TTGTTCTTATTTCATTTTTATATGATATTTCATTAT [CACACA_negctrl_site1619]", "gcPBM binding intensity (ln)": 9.52}, {"sequence": "TGTTGTTCCAATTTTTGTACATAAAACATATATATA [XGTACX_site5719]", "gcPBM binding intensity (ln)": 9.3}, {"sequence": "AAAAAAAAAAAAAATTGTACATTAAATTAAAAGAAA [XGTACX_site8708]", "gcPBM binding intensity (ln)": 8.92}, {"sequence": "AAGAAAATATAAAATGCACACTATAAATTGTATATA [CACACA_site7928]", "gcPBM binding intensity (ln)": 9.51}, {"sequence": "AAAAAAAAAAATACTTGTACTTATATAATATATTAT [XGTACX_site8333]", "gcPBM binding intensity (ln)": 8.97}, {"sequence": "ACATAAATAATAAAAACACACATATGTACCTATATA [CACACA_site6982]", "gcPBM binding intensity (ln)": 9.69}, {"sequence": "AAATTATTTCTTTGCGCATGTAGCTTTTATACTATT [TGCATGCA_site819]", "gcPBM binding intensity (ln)": 9.51}, {"sequence": "AATACATGCTAAAAACGTACACGTATAAAATTATAT [XGTACX_site3169]", "gcPBM binding intensity (ln)": 9.35}, {"sequence": "TTTTTTTTTTTGGCTAGTACATATGTATTTAAAATG [XGTACX_site7770]", "gcPBM binding intensity (ln)": 9.1}, {"sequence": "GGTGAAATTATTTCTACATGCAGAAATAATTAATTA [TGCATGCA_site194]", "gcPBM binding intensity (ln)": 8.93}, {"sequence": "AATTTAATATAATGCACACATAAAAAAAAAATCAAA [CACACA_site1]", "gcPBM binding intensity (ln)": 9.41}, {"sequence": "CGCACACGCAGACACACACACACATATAAATAAATA [CACACA_site7101]", "gcPBM binding intensity (ln)": 9.86}, {"sequence": "AAAAAAAAGAAAAAAAAAAAAAAAAAAAAAAAAAAA [CACACA_negctrl_site489]", "gcPBM binding intensity (ln)": 8.7}, {"sequence": "TACATTCTAATAATTGCACACTGGTTATTAAAAGGA [CACACA_site1614]", "gcPBM binding intensity (ln)": 9.13}, {"sequence": "TTTTTATTTATATTTCATTGAAGTTAAATTATTTTA [XGTACX_negctrl_site575]", "gcPBM binding intensity (ln)": 8.95}, {"sequence": "TTTTATCAATAAATTCGTACACATGAACTAGAGAGT [XGTACX_site5758]", "gcPBM binding intensity (ln)": 9.31}, {"sequence": "ATTAGTATATTTCTCTGTACTTACATTAAAATATAA [XGTACX_site2217]", "gcPBM binding intensity (ln)": 9.1}, {"sequence": "AATTTAATATTCATCTCTAAAGCTATAACAATTACT [CACACA_negctrl_site1079]", "gcPBM binding intensity (ln)": 9.14}, {"sequence": "TCCTTAAAATATGGTTGTACGTACATCCTAGGTGTT [XGTACX_site7068]", "gcPBM binding intensity (ln)": 9.11}, {"sequence": "TCTGAAAATTAGAAAAGTACAAAATGGTATAGGAAA [XGTACX_site4396]", "gcPBM binding intensity (ln)": 9.36}, {"sequence": "ATACAAATTTATATTTCACACATTATTATATACTTA [CACACA_site6034]", "gcPBM binding intensity (ln)": 9.6}, {"sequence": "ATATATATATATAAATGTACAGGCTTATCTCTTATT [XGTACX_site1828]", "gcPBM binding intensity (ln)": 9.37}, {"sequence": "TGTATTATATATGTGTGTACATATTTTTTTTTTTTT [XGTACX_site3351]", "gcPBM binding intensity (ln)": 9.4}, {"sequence": "AAATTATTTCAAATGTTGCACTAAAAATAAAATTAT [GTGCAC_site9460]", "gcPBM binding intensity (ln)": 8.94}, {"sequence": "AGAAAGGATATTATATGTACATATCTTTGTATTTTT [XGTACX_site5040]", "gcPBM binding intensity (ln)": 9.36}, {"sequence": "CATACCCATAAACACACACACATATATACCTATATA [CACACA_site4745]", "gcPBM binding intensity (ln)": 10}, {"sequence": "TAGTATGATAACTTGGGTACATAAATATGGAGTATC [XGTACX_site1296]", "gcPBM binding intensity (ln)": 9.46}, {"sequence": "TTCATTTTATTTTAAGTGCATATTTTTATTTTTTTG", "gcPBM binding intensity (ln)": 9.36}, {"sequence": "TTTTTAATTCAAAAAACTGTATGTTATATGTCAAAT [CACACA_negctrl_site72]", "gcPBM binding intensity (ln)": 8.94}, {"sequence": "TATATAAATAAAAAAAGTACATTACTTTTTAATTTA [XGTACX_site285]", "gcPBM binding intensity (ln)": 8.94}, {"sequence": "ATCATACCTTTTAATGTACACACATTTCTTTTTTGT [CACACA_site8198]", "gcPBM binding intensity (ln)": 9.82}, {"sequence": "TATATATATAAATACACACACACATATATATATATA [CACACA_site4585]", "gcPBM binding intensity (ln)": 9.9}, {"sequence": "AATATACAAATTACAAGTACAAATCAATATTATATG [XGTACX_site7521]", "gcPBM binding intensity (ln)": 9.56}, {"sequence": "AAAAAAAAAAAAAAAACACACAAACAAATGAATAAA [CACACA_site5769]", "gcPBM binding intensity (ln)": 9.71}, {"sequence": "TCATTTTACAGATGTGCATGTGAATCAATCTATTTA [TGCATGCA_site787]", "gcPBM binding intensity (ln)": 8.98}, {"sequence": "GTATATAATTTATATTGTACGCATATTATTATCATT [XGTACX_site7277]", "gcPBM binding intensity (ln)": 9.34}, {"sequence": "TGTAGTTTTTATTTATGTACGCATAACATAATTTAA [XGTACX_site104]", "gcPBM binding intensity (ln)": 9.25}, {"sequence": "AGAATTTAGAAACAATGTTGTATATGTAATACCTTT [XGTACX_negctrl_site149]", "gcPBM binding intensity (ln)": 9.21}, {"sequence": "GATATTATGTGTTTGGTATTTCGATCTTGTCAGGAC [CACACA_negctrl_site426]", "gcPBM binding intensity (ln)": 9.3}, {"sequence": "TATATATATAAAAAAAGTACGTATTTAATAAAAATA [XGTACX_site4992]", "gcPBM binding intensity (ln)": 9.37}, {"sequence": "ATTTCTATATATTGTGCATGCCATTACACCAAATAT [TGCATGCA_site813]", "gcPBM binding intensity (ln)": 9.34}, {"sequence": "AATGTACAAATACGTACACACATATATATATATATA [CACACA_site1542]", "gcPBM binding intensity (ln)": 9.59}, {"sequence": "GTATAAAATATTTTATGTACATAATATATATATATA [XGTACX_site2489]", "gcPBM binding intensity (ln)": 9.07}]}]}
